± gives the standard deviation of the averaged measurements. The list shows a part of the results.
The sequences below were run on PfAP2-G AP2 domain (GST-tagged) (assay: gcPBM binding intensity (ln(normalized median fluorescence intensity)); higher = stronger DNA binding).
Summary of the method: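 Alexa488 anti-GST antibody, scanned at 488 nm, detected GST-tagged P. falciparum DNA-binding domains that had been expressed in E. coli and incubated for 1 h on an Agilent 4 × 180k array. The array carried primer-extended double-stranded 36-bp intergenic genomic probes and negative controls. Binding intensity is the highest Masliner-normalised natural-log median intensity across replicate spots of either orientation of each probe.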

Row | Sequence | gcPBM binding intensity (ln)
1 | TATTTGTGTATTTTTACACACATTAATATATTTATA [CACACA_site7562] | 9.9 ± 0.2
2 | TATATATATAAACACACACACACACCCAAGCGTAGC [CACACA_site4210] | 10.3 ± 0.23
3 | AACAACTATTACTGCACACATTCTTACACTATATAA [CACACA_site654] | 10.4 ± 0.24
4 | TATAGATAACAAAAGTGTACATGTTGTATACACATG [XGTACX_site3471] | 11.3 ± 0.98
5 | TATTCCTATATAAAGACACACATATGTAACTACGAT [CACACA_site4139] | 10.1 ± 0.21
6 | AAAAATTTAATTATTTGTACATAAAATACATTTCTG [XGTACX_site791] | 11 ± 0.38
7 | TGTGTTATATATAAAGAAAAAAAAAAAAAATATATA [CACACA_negctrl_site567] | 9.71 ± 0.14
8 | TATTTTAACATGTTTTCAAAAATAAAACATATAAAT [CACACA_negctrl_site1598] | 9.79 ± 0.26
9 | TAATATGACATAAGGGGTACTATATATATATATATT [XGTACX_site386] | 11.2 ± 0.75
10 | AAACATTTACTATATTGTACTTAAGATCTTATCGTA [XGTACX_site3919] | 11 ± 0.67
11 | ATTGGTGTATGTTTATGTACTTATCACAATTATGAA [XGTACX_site7055] | 11.2 ± 0.76
12 | ATATGTTCATTTAAAAGTACTTAATATAACATTTTT [XGTACX_site3332] | 11.1 ± 0.53
13 | AATAGGAAAAGAAAAGCACACACATAAATAAATATA [CACACA_site8062] | 9.9 ± 0.014
14 | GAACTTTACAACCCAACACACAAAAAAGAAAAGAAA [CACACA_site1717] | 10.2 ± 0.24
15 | TGTATATATAATAAAACACACATTTTTAATGTGCTC [CACACA_site1437] | 9.56 ± 0.15
16 | TCAAATTACTAAAATACACACATATTATAGATATAT [CACACA_site7233] | 9.62 ± 0.18
17 | TAAATACAAAAATGCACACGAAAAGTAATATATATA [CACACA_site6151] | 9.94
18 | GATAAAGTACTTTATACACACAAATATTTATATATA [CACACA_site3974] | 11.1 ± 0.86
19 | AAAAAGAAAATATATACACACCAAAAAAAAAAAAAA [CACACA_site5698] | 9.68 ± 0.29
20 | GTTTTATAAAAAGGCGCACACATATACATAAATATA [CACACA_site1864] | 10.8 ± 0.56
21 | AATTTAAATCTTCAAAGTACTAAAAAAAAAAATAAT [XGTACX_site8566] | 10.9 ± 0.54
22 | ATCATATTTATATTGGTGCATTATGCATGAAATTTA [GTGCAC_site9571] | 10 ± 0.27

Row | Sequence | gcPBM binding intensity (ln)
23 | TTAACATACACTCTAGTGCATATATATAACAAAATA [GTGCAC_site9724] | 9.935 ± 0.078
24 | ATTAAAACACAATATTCACACATGTATATTATATAT [CACACA_site5191] | 9.83 ± 0.13
25 | TTACACATGTATTTGGTGCATGTTGTTAACAAAATA | 10.1 ± 0.12
26 | AAACGATTAATGTGTACACACATAGTTATAAACATA [CACACA_site7073] | 11.7 ± 1.2
27 | AAAACTATTTCTTTCAGTACATATTTGGACTTATAT [XGTACX_site4977] | 11.2 ± 0.9
28 | TACTTTTATAAAAATTGTACAAAAAAAAAAAAAAAA [XGTACX_site2266] | 10.9 ± 0.8
29 | TATGTTATAAAATATATATTATAATATGTATATATA [XGTACX_negctrl_site233] | 9.63 ± 0.014
30 | TATGCTTTGATGAAGACACACATATAGAAGCGTATT [CACACA_site1925] | 9.99 ± 0.028
31 | CGCCCACAGATATATACACACATATATAAATAAATA [CACACA_site6877] | 10.1 ± 0.3
32 | TAAATAAATACATACACACACATACAGATATATATA [CACACA_site5690] | 9.985 ± 0.092
33 | ATAATAAGCAGACACACACACACAAAAAAAAAAAAA [CACACA_site6477] | 10.2 ± 0.63
34 | ATATAAATTTAATACACACCCAAAAAAAAAAAAAAA [CACACA_site3750] | 9.97 ± 0.47
35 | ATATACATATCAATGTAATATTATATACTTTTTTAG [CACACA_negctrl_site816] | 9.775 ± 0.035
36 | TTTTTTATTCCATAATATAATATGTTTTGAAATTTG [GTGCAC_negctrl_site440] | 9.86 ± 0.014
37 | AAACGAGAACATAATAAATACATAAATAAATAAATA [GTGCAC_negctrl_site433] | 9.75 ± 0.11
38 | AAAAAAATAAATAAATGTACATATATAAAACATTGT [XGTACX_site2136] | 11.1 ± 0.46
39 | ATATAATTATATTCCATACACACATATATTTAAAGG [CACACA_site2958] | 10.08 ± 0.042
40 | TTATTTATGAAGTATACACACAATATATATATATAT [CACACA_site1248] | 10.1 ± 0.19
41 | TTAATCCACAGACACACACACACAAAATAAAATACA [CACACA_site244] | 10.3 ± 0.39
42 | TATATATTAAACTTTGCACACATAATTTAACTACAA [CACACA_site3440] | 10.1 ± 0.15
43 | TAGTTCTTTTAATTTAGTATTATACAATATTGGAAA [CACACA_negctrl_site521] | 9.95 ± 0.19
44 | AATATATTAAATATTACACACATACATTTAGTGTAA [CACACA_site5145] | 9.96 ± 0.12

Source: the supplement of paper PMC11417369
